Data reported in PubChem BioAssay AID1362 (SRMLSC, 2008).
Some of the results follow. These are further read-outs of the screen, such as a control signal, another cell line or another target. No call is given for them. Compounds called inactive in the main read-out are mostly missing here.

experiment: growth inhibition of WT strain, primary screen, mitochondrial fusion inhibitor project, WT and mutant strains, chemical genetic (AID 1362); settings: mitochondrial fusion phenotypic screen, at 10 µM; also: tested in S. cerevisiae

Structure (SMILES)	inhibition [%]
O=C(c1ccco1)N1CCN(c2c(-c3ccccc3)c3cc(Cl)ccc3[nH]c2=O)CC1	19.3
Fc1ccccc1Sc1ccccc1CNC1=NCCN1	60.8
COCCNC(=O)CC(NS(=O)(=O)c1ccc(C)cc1)c1ccco1 (stereo not given)	18.4
FC(F)(F)c1nc(-c2cccs2)ncc1-c1nnnn1-c1ccc(Cl)cc1	51.3
Fc1ccc(CNC(=S)Nc2cccc(Cl)c2)cc1	14.7
COc1ccc(C2CC(=O)c3cnc(Nc4cc(C)cc(C)c4)nc3C2)cc1 (stereo not given)	-8.64
O=C(c1cc(-c2ccccc2)nc2ccccc12)N1CCCc2ccccc21	-15.7
CC(C)(C)c1ccc(-c2nc(-c3ccncc3)no2)cc1	21.6
CC1Cc2ccccc2N1C(=O)Cn1c(=O)cc(O)c2ccccc21 (stereo not given)	-51.7
C=C(C)C1CC=C(C)/C(=N/NC(=O)COc2ccccc2Cl)C1 (stereo not given)	13.5
CC(C)(C)c1ccccc1OCCOCCN1CCCCCC1	62.7
CN=c1scc(-c2cccs2)n1/N=C/c1ccccc1O	35.1
COc1cc(/C=N/N=C(/C(=O)c2ccccc2)c2ccccc2)cc(OC)c1O	8.74
O=C(Nc1ncccc1O)c1cccc(S(=O)(=O)N2CCc3ccccc32)c1	63.9
CC1(C)CC(=O)C2=C(C1)N(c1ccc(F)cc1)C(=O)C2(O)C(F)(F)F (stereo not given)	-7.4
C/C(CCc1ccc2c(c1)OCO2)=N\N=C1\NC(=O)CC(C(=O)Nc2ccc(Cl)cc2)S1 (stereo not given)	31.9
CCOC(=O)c1sc(NC(=O)/C=C/c2cnn(CC)c2C)c(C(=O)OCC)c1C	-12.6
Cc1nn(C(C)C(=O)NCC2CCCO2)c(=O)c2cc3occc3n12 (stereo not given)	-15
Cc1nn(CC(O)CN2c3ccccc3Sc3ccccc32)c(C)c1Br (stereo not given)	53.8
CC1(C(=O)OCC(=O)Nc2ccc3ccccc3c2)CC1(Cl)Cl (stereo not given)	58.4
CCn1c2ccccc2c2cc(CNCc3ccc(OC)cc3OC)ccc21	79.7
Cc1ccc(Cn2ncc3c(N4CCN(c5ccccc5C)CC4)ncnc32)cc1	13.8
N#Cc1nc(-c2ccco2)oc1NCc1ccc(F)cc1	0.69
S=c1[nH]nc(-c2ccc3ccccc3n2)n1-c1cc(Cl)cc(Cl)c1	9.33
Cc1cc(C(C)(C)C)oc1C(=O)N(CC(=O)NC1CCCC1)Cc1ccccc1Cl	27.8
NNc1nc2ccc(F)cc2s1	60.7
Cc1ccc(Cl)cc1NC(=S)NCCCSC1CCCCC1	64
Cn1c(CCN2CCN(c3ccccc3)CC2)nc2cc(NC(=O)c3ccco3)ccc21	-6.08
CCN(CCCNC(=O)CCc1nc(-c2ccc(C)cc2)no1)c1cccc(C)c1	16.4
O=C(c1c(F)c(F)c(F)c(F)c1F)N(Cc1ccccc1)Cc1ccccc1	16
